“And” between values parts separate entries of the source, which are not always exact repeats. Identical values can stand only once. Screen size: about 410,000 compounds; about 310 (0.076%) were called active. The shares of active, inactive and inconclusive entries below differ from those in the screen. Calls follow the shape of the dose curve; as a rule, active = well fitted curve in the direction sought with a large enough effect; inconclusive = small, poorly fitted or top-dose-only effect; inactive = flat fitted curve, though single readings scatter. Potencies beside an inconclusive call are fits to weak or partial responses and may not hold up.
Biological target: DNA dC->dU-editing enzyme APOBEC-3G (Homo sapiens) (UniProt Q9HC16)
Sequence of UniProt Q9HC16 (Q9HC16 whole entry, looked up): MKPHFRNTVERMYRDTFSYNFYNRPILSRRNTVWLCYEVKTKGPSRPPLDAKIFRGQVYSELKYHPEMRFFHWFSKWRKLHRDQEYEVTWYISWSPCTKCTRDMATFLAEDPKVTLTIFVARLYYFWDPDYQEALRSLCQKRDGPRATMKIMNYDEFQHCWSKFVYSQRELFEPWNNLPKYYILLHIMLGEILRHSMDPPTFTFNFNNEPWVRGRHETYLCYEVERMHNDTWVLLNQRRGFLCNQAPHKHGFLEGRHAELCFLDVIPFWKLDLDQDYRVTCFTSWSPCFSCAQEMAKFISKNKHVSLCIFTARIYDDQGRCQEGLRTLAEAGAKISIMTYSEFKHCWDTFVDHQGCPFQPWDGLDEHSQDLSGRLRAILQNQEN
Experiment: qHTS for Inhibitors of Vif-A3G Interactions: qHTS; also: nearly all actives have a fitted effect of over 60% in size;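 as to activity, negative = active: hits raise eYFP signal because A3G escapes Vif-driven loss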
Conditions: HeLa A3G-eYFP + Vif (tagged APOBEC3G with the HIV-1 protein that degrades it), YFP fluorescence, overnight; series mostly up to 46.1 µM; activity, negative = active: at the top concentration
How it was run: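 Read-out is eYFP fluorescence (Ex 488/Em 500-530) from Vif-expressing HeLa A3G-eYFP cells; more signal means A3G escaped Vif-mediated degradation. Cells plated overnight, compound pinned in, incubated overnight at 37 deg C.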
% is scaled to controls: 0 for no effect and ±100 for the full control effect; potency is read from the fitted curve at half-maximal effect; tags tell the direction and shape of the fitted curve.

SMILES | activity, negative = active | Potency
CC12CCC(=O)N1C(C(=O)Nc1ccc(Cl)c(S(=O)(=O)N3CCCCC3)c1)CS2 (stereo not drawn) | inactive: 2.01% | 
C=CC[C@@H](Cc1ccc(F)cc1)C(=O)OC[C@H]1CCCN1C(=O)[C@@H](CC=C)CC(=O)N(CCO)Cc1ccccc1 | inactive: 2.78% | 
COc1ccccc1NCC(=O)c1ccc(C)c(C)c1 | inactive: 0.592% | 
Cc1ccc(C(=O)/C=C/Nc2cccc(O)c2)cc1 | inactive: 0.0885% | 
CCCCCN(C(=O)CCC(=O)OCc1ccc(C(C)C)cc1)c1c(N)n(CCCC)c(=O)[nH]c1=O | inactive: -21% | 
CCOc1cc(NC(=O)C2CC2)c(OCC)cc1NC(=O)c1cccc(F)c1 | inactive: -0.47% | 
COc1ccc(Nc2c3c(nc4ccc(NC(=O)c5cc(Cl)ccc5OC)cc24)CCCC3)cc1OC |  | inconclusive: 35.5 µM [inhibitor, single point]
COc1cc(C(=O)NNC(=S)NC(=O)c2ccc(F)cc2)cc(OC)c1OC |  | inconclusive: 35.5 µM [inhibitor, single point]
CC(=O)Nc1cc(-c2cccc(N)c2)cn2c(-c3ccc(C(C)=O)cc3)cnc12 |  | inconclusive: 31.6 µM [inhibitor, single point]
COc1ccc(Cn2c(=O)cc(N)n(-c3ccccc3C)c2=O)cc1 |  | inconclusive: 11.2 µM [inhibitor, partial curve, poor fit]
CC1CCc2nc(/C(C#N)=C/c3cccnc3)sc2C1 (stereo not drawn) | inactive: -16.7% | 
Cc1onc(-c2ccccc2Cl)c1C(=O)Oc1cc(N)n(S(=O)(=O)c2ccc(F)cc2)n1 |  | inconclusive: 17.8 µM [inhibitor, partial curve, poor fit]
CC(C)n1c(C(=O)OCC(=O)NCc2ccc3c(c2)OCO3)cc2sccc21 |  | inconclusive: 8.91 µM [inhibitor, partial curve]
COc1ccc(C)cc1NC(=O)CNC(c1ccccc1)c1ccc(C)cc1 (stereo not drawn) |  | inconclusive: 1.26 µM [inhibitor, partial curve, poor fit]
Clc1ccc2nc(-c3ccco3)c(Cc3ccsc3)n2c1 |  | inconclusive: 25.1 µM [inhibitor, single point]
O=C1N/C(=N\N=C\c2cccs2)SC1Cc1ccc(Cl)cc1Cl (stereo not drawn) |  | inconclusive: 2 µM [inhibitor, partial curve, poor fit]
COc1ccc(-n2c(O)c(/C=N/NS(=O)(=O)c3ccc(C)cc3)c3ccccc3c2=O)cc1OC |  | inconclusive: 3.55 µM [inhibitor, partial curve, poor fit]
CCCn1c(CN2CCN(C(=O)OCC)CC2)nc2cc(NC(C)=O)ccc21 |  | inconclusive: 17.8 µM [inhibitor, single point]
N#CC1=C(N)Oc2c(ccc3ccccc23)C1c1cccs1 (stereo not drawn) |  | inconclusive: 0.355 µM [inhibitor, full curve, poor fit]
CCC(=O)c1cc2c(C)cc(=O)oc2c(C)c1OC(C)=O |  | inconclusive: 4.47 µM [inhibitor, single point]
COc1cc(NC(=O)c2ccco2)c(C(=O)OCC(=O)c2c[nH]c3ccccc23)cc1OC |  | inconclusive: 15.8 µM [inhibitor, partial curve, poor fit]

SMILES | activity, negative = active | Potency
COc1ccc(C2=Nn3c(nnc3-c3ccccc3F)SC2)cc1OCC1CC1 |  | inconclusive: 3.55 µM [inhibitor, partial curve, poor fit]
COc1ccccc1-c1cnc(C(O)c2cc(C)c(OC)c(C)c2)[nH]1 (stereo not drawn) |  | inconclusive: 25.1 µM [inhibitor, single point]
O=C(COC(=O)COc1ccc(Cl)cc1Cl)NC1CC1 | inactive: -2.1% | 
O=C(CSc1nccn1-c1ncc(C(F)(F)F)cc1Cl)c1ccc(Br)cc1 | inactive: -9.63% | 
CN(C)c1ccc(-n2cccc2/C=C/[N+](=O)[O-])cc1 |  | inconclusive: 12.6 µM [inhibitor, single point]
O/C(=C\c1nc2ccccc2nc1/C=C(\O)c1ccccc1)c1ccccc1 | inactive: -6.91% | 
N#Cc1cc(C(=O)c2ccccc2O)cn(-c2nccs2)c1=O |  | inconclusive: 31.6 µM [inhibitor, single point]
Clc1ccc(-c2csc3ncnc(Sc4nnnn4-c4ccccc4)c23)cc1 |  | inconclusive: 6.31 µM [inhibitor, partial curve, poor fit]
CCCN1C(=O)C(=O)c2cc(Cl)ccc21 |  | inconclusive: 35.5 µM [inhibitor, single point]
CS(=O)(=O)N(CC(=O)NCCc1ccccc1)c1cccc([N+](=O)[O-])c1 | inactive: -0.277% | 
COc1cc(/C=N/n2cnc3scc(-c4cccs4)c3c2=O)cc(OC)c1OC |  | inconclusive: 1 µM [inhibitor, full curve, poor fit]
CC(=O)c1cccc(-c2ccnc3c2CC(C(=O)NCC2CCOCC2)O3)c1 (stereo not drawn) |  | inconclusive: 5.62 µM [inhibitor, full curve]
CN1CCC(NCCC(c2ccc(F)cc2)c2ccc(Cl)cc2)CC1 (stereo not drawn) |  | inconclusive: 35.5 µM [inhibitor, single point]
COc1ccc2c(c1)oc1c(SCc3nc4ccccc4[nH]3)nc(C)nc12 |  | inconclusive: 17.8 µM [inhibitor, single point]
COC(=O)c1ccccc1NC(=O)Cn1c(=O)n(-c2ccc(C)cc2)c(=O)c2ccccc21 |  | inconclusive: 3.55 µM [inhibitor, partial curve, poor fit]
COc1ccc2c(Cl)c(C(=O)N/N=C/c3ccc4c(c3)OCO4)sc2c1 | inactive: -26.9% | 
COc1ccc(C(=O)c2sc3nc(-c4ccccc4)ccc3c2N)cc1 |  | inconclusive: 35.5 µM [inhibitor, single point]
CN(C)c1ccc(-c2ccnc3c2CC(C)(C(=O)NCc2cccs2)O3)cc1 (stereo not drawn) |  | inconclusive: 5.62 µM [inhibitor, full curve, poor fit]
Cc1ccc(S(=O)(=O)Nc2ccccc2N2CCOCC2)cc1 |  | inconclusive: 3.98 µM [inhibitor, full curve]
COC(=O)c1sccc1NC(=S)N1CCN(c2cccc(C)c2C)CC1 |  | inconclusive: 8.91 µM [inhibitor, partial curve, poor fit]
O=S(=O)(N=C1C=CC(=NS(=O)(=O)c2ccccc2)c2ccccc21)c1ccccc1 |  | inconclusive: 17.8 µM [inhibitor, partial curve, poor fit]

SMILES | activity, negative = active | Potency
O=C(C[C@H]1C/C=C\C[C@@H](NC(=O)OCC2c3ccccc3-c3ccccc32)C(=O)O[C@@H](c2ccccc2)CNC1=O)N[C@H](CO)Cc1ccccc1 |  | inconclusive: 10 µM [inhibitor, partial curve, poor fit]
O=C(CSc1nc2c([nH]c3ccccc32)c(=O)n1-c1ccc(F)cc1)NC1CCCCC1 |  | inconclusive: 20 µM [inhibitor, single point]
Cc1cc(=O)oc2cc(OCC3CC(c4ccccc4)=NO3)ccc12 (stereo not drawn) |  | inconclusive: 6.31 µM [inhibitor, full curve]
CC(C)(C)C1CCc2sc(C(=O)NNC(=O)CCl)cc2C1 (stereo not drawn) | inactive: -2.13% | 
COC(=O)c1ccc(Nc2c([N+](=O)[O-])ccc3nonc23)cc1 |  | inconclusive: 31.6 µM [inhibitor, single point]
COc1ccc(C(c2nnnn2-c2ccc(OC)cc2)N2CCN(C/C=C/c3ccccc3)CC2)cc1 (stereo not drawn) | inactive: -8.29% | 
COc1ccc(NC(=O)CSc2nc(-c3cccs3)cc(C(F)(F)F)c2C#N)cc1 | inactive: -8.9% | 
Cc1nn(Cc2c(Cl)cccc2Cl)c(C)c1NC(=O)c1cc(C(C)C)on1 |  | inconclusive: 14.1 µM [inhibitor, partial curve, poor fit]
c1ccc(-c2cnn3c(-c4ccccc4)c(-c4ccccc4)nc3n2)cc1 |  | inconclusive: 1.12 µM [inhibitor, full curve, poor fit]
O=C(C[n+]1cccc2cc(Cl)ccc21)c1ccc2ccccc2c1 |  | inconclusive: 22.4 µM [inhibitor, partial curve, poor fit]
O=c1c2cc(N3CCOCC3)ccc2[nH]c(=S)n1Cc1ccco1 | inactive: -5.22% | 
COc1cc(/C=C/C(=O)OCc2cn3cc(Cl)ccc3n2)ccc1O |  | inconclusive: 11.2 µM [inhibitor, partial curve, poor fit]
CCN(CC)c1cc(C)c(/C=C/c2ccnc3ccccc23)cc1C |  | inconclusive: 15.8 µM [inhibitor, partial curve, poor fit]
O=C1S/C(=C/c2ccc(N3CCOCC3)o2)C(=O)N1Cc1c(F)cccc1Cl |  | active: 3.98 µM
O=C(N/N=C/c1ccco1)c1cc(-c2ccncc2)nc2ccccc12 |  | inconclusive: 14.1 µM [inhibitor, partial curve, poor fit]
COc1cccc(N2[C@@H](CC(C)=O)c3ccc(/C=C/C(C)=O)cc3S2(=O)=O)c1 |  | inconclusive: 25.1 µM [inhibitor, single point] and inconclusive: 22.4 µM [inhibitor, single point]
COc1ccc(C(=O)CSc2nc3ncccc3[nH]2)cc1OC | inactive: 2.3% | 
COc1ccc(-c2nn(-c3ccccc3)cc2/C=C/C(=O)O)cc1[N+](=O)[O-] |  | inconclusive: 7.94 µM [inhibitor, partial curve, poor fit]
Cc1ccc(OCC(=O)N/N=C/C=C/c2ccco2)cc1C |  | inconclusive: 20 µM [inhibitor, single point]
COc1ccc(-c2nc(SCC(=O)c3ccc(OC)c(Br)c3)n[nH]2)cc1 |  | inconclusive: 2.82 µM [inhibitor, full curve]
CC(C)(C)OC(=O)N1CCC(c2cc(=O)n3[nH]cc(C(=O)Nc4ccc(F)c(Cl)c4)c3n2)CC1 | inactive: 0.0551% | 
